Measured values published in PubChem BioAssay AID588579 (National Center for Advancing Translational Sciences (NCATS), 2011).
Values joined by “and” are separate entries in the source; they are usually repeats but may differ in a detail not shown here. Identical values can stand only once. The whole screen tested about 400,000 compounds, of which about 2,200 (0.55%) were called active. Inconclusive results (about 1%) are left out. Calls follow the shape of the dose curve; as a rule, active = well fitted inhibition curve with a large enough effect; inconclusive = small, poorly fitted or top-dose-only effect, or another doubt; inactive = no such curve, though single readings can be large or run the other way. The entries are a selection whose mix differs from that of the whole data set. A structure can be active in one record and inactive in another.

molecular target: DNA polymerase kappa (Homo sapiens) (UniProt Q9UBT6); assay: qHTS for Inhibitors of Polymerase Kappa; details: purified Pol kappa, fluorescent DNA synthesis assay, 10 min; series mostly up to 107 µM; activity, negative = inhibition: at the top concentration
Chain of UniProt Q9UBT6 (Q9UBT6 whole entry, looked up): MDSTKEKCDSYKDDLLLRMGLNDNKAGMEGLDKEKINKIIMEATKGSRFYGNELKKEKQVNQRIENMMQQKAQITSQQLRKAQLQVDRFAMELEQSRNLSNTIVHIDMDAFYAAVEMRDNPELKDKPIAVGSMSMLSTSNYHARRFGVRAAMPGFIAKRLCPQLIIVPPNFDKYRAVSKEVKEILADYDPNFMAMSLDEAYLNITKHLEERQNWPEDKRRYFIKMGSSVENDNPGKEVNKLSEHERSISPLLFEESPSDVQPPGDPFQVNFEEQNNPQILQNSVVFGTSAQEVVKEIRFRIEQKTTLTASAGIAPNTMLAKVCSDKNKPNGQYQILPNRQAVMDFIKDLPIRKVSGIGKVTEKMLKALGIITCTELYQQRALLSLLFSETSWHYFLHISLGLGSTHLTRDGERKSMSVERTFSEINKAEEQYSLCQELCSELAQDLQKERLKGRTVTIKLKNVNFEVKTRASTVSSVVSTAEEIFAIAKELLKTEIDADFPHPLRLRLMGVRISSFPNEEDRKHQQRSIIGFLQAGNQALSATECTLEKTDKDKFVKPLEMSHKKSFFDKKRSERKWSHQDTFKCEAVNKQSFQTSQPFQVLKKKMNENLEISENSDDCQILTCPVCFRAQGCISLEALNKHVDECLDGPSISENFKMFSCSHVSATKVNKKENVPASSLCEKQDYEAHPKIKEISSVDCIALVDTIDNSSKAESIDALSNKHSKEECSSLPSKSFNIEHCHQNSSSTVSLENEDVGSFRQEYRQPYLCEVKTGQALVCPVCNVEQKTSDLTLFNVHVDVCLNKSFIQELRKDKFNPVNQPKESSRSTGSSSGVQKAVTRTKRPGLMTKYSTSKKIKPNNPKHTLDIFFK
How it was run: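 Enzyme at 10 nM met test compounds for 15 min at room temperature. Substrate addition (50 nM final) began the reaction, which was monitored by fluorescence at 0 and 10 min.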
% is scaled to controls: 0 for no effect and ±100 for the full control effect; potency is read from the fitted curve at half-maximal effect.

Row | Compound | Potency | activity, negative = inhibition
1 | Cc1cc(NC(=O)CN2CCC(C)CC2)nc2c1c(=O)oc1ccccc12 | active: 89.1 µM | 
2 | Cc1cc(=O)[nH]c2c(N=Nc3ccc(O)cc3)c(N)nn12 | active: 89.1 µM | 
3 | CN1\C(=C/C=C/C=C/C=[N+](C)C)C(C)(C)c2ccccc21 | active: 50.1 µM | 
4 | COC1C(OC(=O)/C=C/C=C/C=C/C=C/C(=O)O)CCC2(CO2)C1C1(C)OC1CC=C(C)C (stereo unspecified) |  | inactive: -5.11% [at 60.1 µM]
5 | CSc1ccc(NC(=O)CSc2nc3[nH]c(=O)cc(O)c3s2)cc1 | active: 56.2 µM | 
6 | C=C(C)C(=O)Nc1cccc(C2=NOC3(C2)C[C@@H](C(N)=O)N(C(=O)c2ccc(Cl)cc2)C3)c1 (stereo partly specified) | active: 35.5 µM | 
7 | CC(C)NC[C@H](O)c1ccc(O)c(O)c1 | inactive | 
8 | COc1cc2oc(=O)ccc2cc1O |  | inactive: 13.8% [at 60.1 µM]
9 | Cc1cccc(-c2nn(C(=S)Nc3ccccc3)cc2-c2ccnc3ccccc23)n1 |  | inactive: 13.6% [at 60.1 µM]
10 | COCCc1ccc(OCC(O)CNC(C)C)cc1 (stereo unspecified) | inactive | 
11 | COC(=O)c1cc(S(=O)(=O)NCC2CCN(Cc3cccc(F)c3)CC2)cn1C | inactive | 
12 | O=C(NCCO)c1ccc2nc(-c3ccco3)c(-c3ccco3)nc2c1 | active: 25.1 µM | 
13 | COC(=O)[C@@H]1[C@H]2C[C@H]3c4[nH]c5ccccc5c4CCN3C[C@H]2CC[C@@H]1O |  | inactive: 2.71% [at 19.4 µM] and inactive: -1.17% [at 19.4 µM]
14 | CCOC(=O)C1=C(O)C(=O)N(Cc2ccccc2)C1 |  | inactive: -15.9%
15 | O=C1CCC[C@@H]2Cc3nc4ccc(O)cc4cc3[C@@H]3CCN1[C@H]23 |  | inactive: -25%
16 | CCOC(=O)c1sc2ccccc2c1S(=O)(=O)Nc1ccc(OC)c(Cl)c1 |  | inactive: 24.5%
17 | O=C(O)c1cc(-c2ccc(/C=C3\NC(=O)N(c4ccccc4)C3=O)o2)ccc1Cl | active: 44.7 µM | 
18 | C[C@@H]1CC=C[C@@H]2[C@H]1C(=O)N(Cc1ccccc1)[C@H]2c1ccccc1Br |  | inactive: -4.49%
19 | O=C(NCc1ccc(Cl)cc1)C1CCN(S(=O)(=O)c2ccc(F)cc2)CC1 |  | inactive: 1.54%
20 | CC[C@@]1(O)CC2CN(CCc3c([nH]c4ccccc34)[C@](C(=O)OC)(c3cc4c(cc3OC)N(C)C3[C@@](O)(C(=O)OC)C(OC(C)=O)[C@]5(CC)C=CCN6CC[C@@]43C65)C2)C1 (stereo partly specified) |  | inactive: -13.1% [at 60.1 µM]
21 | CC/C(=C(\c1ccccc1)c1ccc(OCCN(C)C)cc1)c1ccccc1 | inactive | 

Row | Compound | Potency | activity, negative = inhibition
22 | Cc1noc(/C=C/c2ccc(-c3ccccc3Cl)o2)c1[N+](=O)[O-] |  | inactive: 420%
23 | COc1cccc2c1C(=O)c1c(O)c3c(c(O)c1C2=O)C[C@](O)(C(=O)CO)C[C@@H]3O[C@H]1C[C@H](N)[C@@H](O)[C@H](C)O1 |  | inactive: -2.34% [at 60.1 µM]
24 | CCc1ccc(CNC(=O)C2CCN(c3nc4ccccc4nc3C(F)(F)F)CC2)cc1 |  | inactive: 26.3%
25 | CCSC[C@H](NC(=O)[C@H](C)N)C(=O)N[C@@H](CC(=O)O)C(=O)N[C@H](C(=O)N[C@@H](C)C(=O)N[C@H](C(=O)N[C@@H](CSCC)C(=O)N[C@H](C(=O)N[C@H](C(=O)N[C@@H](Cc1cnc[nH]1)C(=O)N[C@@H](CCCNC(=N)N)C(=O)N[C@@H](CC(C)C)C(=O)N[C@@H](C)C(=O)NCC(=O)N[C@@H](CC(C)C)C(=O)N[C@@H](CC(C)C)C(=O)N[C@@H](CO)C(=O)N[C@@H](CCCNC(=N)N)C(=O)N[C@@H](CO)C(=O)NCC(=O)NCC(=O)N[C@H](C(=O)N[C@H](C(=O)N[C@@H](CCCCN)C(=O)N[C@@H](CC(N)=O)C(=O)N[C@@H](CC(N)=O)C(=O)N[C@@H](Cc1ccccc1)C(=O)N[C@H](C(=O)N1CCC[C@H]1C(=O)N[C@H](C(=O)N[C@@H](CC(N)=O)C(=O)N[C@H](C(=O)NCC(=O)N[C@@H](CO)C(=O)N[C@@H](CCCCN)C(=O)N[C@@H](C)C(=O)N[C@@H](Cc1ccccc1)C(N)=O)C(C)C)[C@@H](C)O)C(C)C)C(C)C)C(C)C)[C@@H](C)O)C(C)C)[C@@H](C)O)[C@@H](C)O |  | inactive: 19.5% [at 60.1 µM]
26 | C=CC(C)(O)CCCC(C)CCCC(C)CCCC(C)C (stereo unspecified) | inactive | 
27 | CN1CCC[C@@H]1CCO[C@](C)(c1ccccc1)c1ccc(Cl)cc1 | inactive | 
28 | CC(C)=CCc1c2c(c3occ(-c4ccc(O)cc4)c(=O)c3c1O)C=CC(C)(C)O2 |  | inactive: -15.9%
29 | COC(=O)C1=C(C)NC(C)=C(C(=O)OCCN(C)Cc2ccccc2)C1c1cccc([N+](=O)[O-])c1 (stereo unspecified) | inactive | 
30 | Cc1oc2c(cc(NS(=O)(=O)c3ccc(C(C)C)cc3)c3ccccc32)c1C(=O)O |  | inactive: -37.2%
31 | N[C@H](CCC(=O)NCC(=O)O)C(=O)O | inactive | 
32 | CC1=CC(c2ccccc2)n2nc(N3C(=O)c4ccccc4C3=O)nc2N1 (stereo unspecified) | active: 44.7 µM | 
33 | O=C(C[C@H]1C/C=C\CC[C@H](Cc2ccc(F)cc2)C(=O)O[C@@H](c2ccccc2)CNC1=O)N[C@H](CO)Cc1ccccc1 |  | inactive: -7.64%
34 | CCC(C)C(N)C(=O)O (stereo unspecified) |  | inactive: 0.427% [at 19.4 µM]
35 | O=C(N/N=C/C(Br)=C\c1ccccc1)c1n[nH]c2c1CCC2 |  | inactive: -1.35%
36 | COc1cc(NC(=O)CSc2ncc3c(n2)-c2ccc(Cl)cc2N(Cc2ccccc2)S3(=O)=O)cc(OC)c1 |  | inactive: 23%
37 | CC(O)C(N)C(=O)O (stereo unspecified) |  | inactive: 6.26% [at 60.1 µM]
38 | H-TNEIVEEQYTPQSLATLESVFQELGKLTGPNSQ-OH |  | inactive: 19.7% [at 60.1 µM]
39 | CC(C)(C)c1ccc(N2C[C@@H](COc3ccc(C(=O)O)cc3)CC2=O)cc1 |  | inactive: 19.5% [at 60.1 µM]
40 | Nc1nnc(CC(=O)N/N=C/c2ccc(-c3cccc(C(=O)O)c3)o2)s1 | active: 25.1 µM | 
41 | Cc1ccc2c(=O)c3ccccc3n(CCCN)c2c1C |  | inactive: 16% [at 60.1 µM]
